US11365205B2 (Aurigene Discovery Technologies Limited, priority 2018, dated 2022)

These molecules were tested against PRMT5/MEP50 Complex (Homo sapiens (Human), UniProt O14744) (assay: PRMT5 inhibition based on TR-FRET assay). Conditions: 32 nM PRMT5:MEP50, 50 nM Histone-H4 peptide, 1 μM SAM.
Format: biochemical
Description: PRMT5 Inhibition Based on TR-FRET Assay:
Protein arginine methyltransferase 5 (PRMT5) is a type II arginine methyltransferase that catalyze mono- and symmetric demethylation on arginine residues of histone or non-histone proteins in presence of S-adenosylmethionine (AdoMet or SAM) a cofactor responsible for donating the methyl group. PRMT5 is reported to be overexpressed in several human cancers. To identify compounds that inhibit the PRMT5 and decrease its activity, a TR-FRET based assay has been established. Time-resolved fluorescence resonance energy transfer (TR-FRET) HTS assays are homogeneous proximity assays where the interaction of two dye-labeled binding partners is detected by the energy transfer between a donor and an acceptor dye and the subsequent light emission by the acceptor dye. PRMT5 catalyzes Histone H4 peptide which is biotin tagged to the Lysine amino acid at carboxyl end, in presence of S-adenosyl-1-methionine (SAM) to methylate the peptide. The antibody specific to mono methylated H4 peptide (H4R3) with Ig conjugate binds to the methylated peptide, indirectly binding to the Europium lanthanide. SureLight Allophycocyanin-Streptavidin binds to the biotin tag of the peptide, therefore accepting the energy transferred from the Europium lanthanide. This energy transfer between Europium to SureLight Allophycocyanin is a direct measure of the activity/inhibition of the PRMT5 enzyme.
Assay buffer: 20 mM BICINE (pH 7.6), 25 mM NaCl, 2 mM DTT, 0.01% Tween-20 and 0.01% BSA.
The compound dilutions were prepared as 7.5% DMSO stock solutions in assay buffer. To 2 μL (7.5×) of test compound, 5 μL of PRMT5 enzyme prepared in assay buffer (Final concentration of 32 nM in 15 μL reaction volume) was added and allowed for 30 minutes pre-incubation time in a white polystyrene 384-well plate at room temperature. […] The plates were then read on Victor-3 with Excitation at 340 nm and Emissions collected at 615 and 665 nm in TR-FRET protocol. […]

Sequence of UniProt O14744 (O14744 whole entry): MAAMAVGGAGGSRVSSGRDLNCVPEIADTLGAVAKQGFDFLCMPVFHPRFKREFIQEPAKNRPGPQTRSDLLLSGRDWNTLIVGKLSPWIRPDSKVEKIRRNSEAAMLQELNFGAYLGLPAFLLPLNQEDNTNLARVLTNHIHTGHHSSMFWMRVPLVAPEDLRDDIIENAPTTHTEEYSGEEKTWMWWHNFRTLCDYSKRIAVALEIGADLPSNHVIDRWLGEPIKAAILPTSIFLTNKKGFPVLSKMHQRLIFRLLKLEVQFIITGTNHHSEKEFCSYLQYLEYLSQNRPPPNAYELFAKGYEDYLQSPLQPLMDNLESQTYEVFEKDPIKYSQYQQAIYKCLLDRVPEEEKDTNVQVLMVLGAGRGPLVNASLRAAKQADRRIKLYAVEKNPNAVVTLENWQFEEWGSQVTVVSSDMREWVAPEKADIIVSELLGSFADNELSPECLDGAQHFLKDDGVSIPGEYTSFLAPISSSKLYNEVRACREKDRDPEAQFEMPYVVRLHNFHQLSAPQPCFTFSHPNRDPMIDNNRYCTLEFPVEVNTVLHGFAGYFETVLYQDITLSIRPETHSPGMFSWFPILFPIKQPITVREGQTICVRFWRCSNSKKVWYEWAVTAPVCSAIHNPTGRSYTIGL
Sequence of UniProt O14744 (Q9BQA1 whole entry partner): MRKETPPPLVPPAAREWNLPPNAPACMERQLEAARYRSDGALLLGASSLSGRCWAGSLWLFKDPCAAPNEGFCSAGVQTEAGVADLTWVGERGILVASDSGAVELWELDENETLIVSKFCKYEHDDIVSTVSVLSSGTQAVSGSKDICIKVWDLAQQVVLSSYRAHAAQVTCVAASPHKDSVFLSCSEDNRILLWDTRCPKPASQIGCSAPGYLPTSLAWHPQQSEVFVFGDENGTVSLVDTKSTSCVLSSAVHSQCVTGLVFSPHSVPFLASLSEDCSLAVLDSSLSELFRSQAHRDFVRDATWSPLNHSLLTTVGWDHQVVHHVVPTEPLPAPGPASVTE

Row | IC50 [nM] | Structure (SMILES)
1 | 180 | CC1(C)CN(Cc2ccc(C#N)cc2)C(=O)N1CC(O)CN1CCc2ccccc2C1 (single isomer, unassigned) [Example 2b, 4-((3-(3-(3,4-dihydroisoquinolin-2(1H)-yl)-2-hydroxypropyl)-4,4-dimethyl-2-oxoimidazolidin-1-y1)methyl)benzonitrile]
2 | 350 | CN(C)c1ccc(CN2CCN(CC(O)CN3CCc4ccccc4C3)C2=O)cc1 (stereo not drawn) [Example 3, 1-(3-(3,4-dihydroisoquinolin-2(1H)-yl)-2-hydroxypropyl)-3-(4-(dimethylamino)benzyl)imidazolidin-2-one]
3 | 450 | Cn1nccc1CN1CCN(CC(O)CN2CCc3ccccc3C2)C1=O (stereo not drawn) [Example 4, 1-(3-(3,4-dihydroisoquinolin-2(1H)-yl)-2-hydroxypropyl)-3-((1-methyl-1H-pyrazol-5-yl)methyl)imidazolidin-2-one]
